Measured values taken from PubChem BioAssay AID1347043 (National Center for Advancing Translational Sciences (NCATS), 2019).
The whole screen tested about 76,000 compounds, of which about 1,900 (2.5%) were called active. The inconclusive results got no clear call from the source; some entries with a clear call stand among them for comparison. Calls follow the shape of the dose curve; as a rule, active = well fitted inhibition curve with a large enough effect; inconclusive = small, poorly fitted or top-dose-only effect; inactive = flat fitted curve, though single readings scatter. Where the call is inconclusive, the potency comes from a doubtful curve fit.

Molecular target: Luciferin 4-monooxygenase (Photinus pyralis) (UniProt P08659)
Chain of UniProt P08659 (P08659 whole entry, looked up): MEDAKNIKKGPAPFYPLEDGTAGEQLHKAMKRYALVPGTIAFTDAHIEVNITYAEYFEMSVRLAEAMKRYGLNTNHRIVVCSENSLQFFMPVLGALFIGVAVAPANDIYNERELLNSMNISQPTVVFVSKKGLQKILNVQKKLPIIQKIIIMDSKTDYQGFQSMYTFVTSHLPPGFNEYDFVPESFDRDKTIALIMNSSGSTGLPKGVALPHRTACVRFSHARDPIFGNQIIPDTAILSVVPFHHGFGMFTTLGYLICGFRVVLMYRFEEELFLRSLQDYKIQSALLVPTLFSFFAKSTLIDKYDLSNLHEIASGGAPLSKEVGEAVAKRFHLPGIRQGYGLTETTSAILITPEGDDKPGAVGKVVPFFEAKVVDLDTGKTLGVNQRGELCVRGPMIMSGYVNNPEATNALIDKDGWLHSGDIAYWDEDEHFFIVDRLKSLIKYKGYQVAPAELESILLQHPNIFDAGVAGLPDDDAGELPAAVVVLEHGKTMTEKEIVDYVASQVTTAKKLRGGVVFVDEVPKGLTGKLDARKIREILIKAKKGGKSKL
Assay: Firefly luciferase inhibition profiling of diverse chemical library using quantitative high-throughput screening; also: nearly all actives have a fitted effect of over 65% in size
Conditions: purified P. pyralis luciferase, luminescence, biochemical; series mostly up to 115 µM
How it was run: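 Purified 10nM P. pyralis luciferase with 10uM D-luciferin and 10uM ATP in 50mM Tris acetate pH 7.5, 10mM Mg acetate, 0.01% Tween-20, 0.05% BSA. qHTS titration; luminescence read by CCD imager.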
Potency is read from the fitted curve at half-maximal effect; tags tell the direction and shape of the fitted curve.

SMILES | Potency
OCCN1CCN(c2ccc(-c3nc(-c4cccc(C(F)(F)F)c4)no3)cn2)CC1 | active: 28.2 µM
CCN(CCc1nc2ccc(C)cc2[nH]1)C(=O)c1ccccc1C1CCNC1 (centres undefined) | inactive
CSCCC(=O)N1CCc2[nH]nc(-c3ccc(C(F)(F)F)cc3)c2C1 | inconclusive: 50.1 µM [inhibitor, partial curve]
Cc1noc(C)c1-c1cc(-c2cccc3cc[nH]c23)cn2cncc12 | inactive
O=C(CN1C(=O)NC2(CCS(=O)(=O)CC2)C1=O)Nc1ccc2c(c1)OCCO2 | active: 35.5 µM
CN1CCc2nc(N3CCN(C(=O)CCC4CCCC4)CC3)sc2C1 | inconclusive: 50.1 µM [inhibitor, partial curve]
CCn1c2ccccc2c2cc(C(=O)N3C[C@@H](Oc4ccccc4)C[C@@H]3C(=O)NC)ccc21 | inconclusive: 35.5 µM [inhibitor, partial curve]
O=C(NCCn1ccn2nc(-c3ccc(F)cc3)cc2c1=O)c1n[nH]c2c1CCCC2 | active: 0.398 µM
Cc1ccc2c(C(=O)NCCc3cccs3)cc(NC(=O)C3CCC3)cc2n1 | inconclusive: 39.8 µM [inhibitor, partial curve]
Cc1cn2nc(C(=O)NCc3ccco3)cc2c(=O)[nH]1 | inconclusive: 63.1 µM [inhibitor, partial curve, poor fit]
O=C(NCC1Cn2cccc2CN1Cc1ccccc1)c1n[nH]c2ccccc12 (centres undefined) | active: 14.1 µM
CCn1ccc(C(=O)N2CC(Oc3ccc(-c4nc(-c5ccccc5)no4)cc3)C2)n1 | inconclusive: 31.6 µM [inhibitor, full curve]
O=C(Cc1c[nH]c2ncc(-c3cccc(Cl)c3)cc12)NCc1cccnc1 | inconclusive: 100 µM [inhibitor, partial curve, poor fit]
CCn1ncc(N2CCCC(CC(=O)Nc3ccc(Cl)cc3)C2)cc1=O (centres undefined) | inconclusive: 39.8 µM [inhibitor, partial curve]
NC(=O)COc1ccc(C(=O)N[C@@H]2CN(C(=O)Nc3cccc(C(F)(F)F)c3)CCC[C@H]2O)cc1 | inconclusive: 89.1 µM [inhibitor, single point]
c1ccc(CCc2nc3nccc(-c4ccccn4)n3n2)cc1 | inconclusive: 50.1 µM [inhibitor, partial curve]
COc1ccc(-c2ccc3c(c2)C(=O)N2CC[C@H](NS(=O)(=O)c4cccs4)[C@H]2C(=O)N3)cc1 | inconclusive: 35.5 µM [inhibitor, full curve]
CC(=O)Nc1cccc(-c2cnc3n[nH]c(-c4ccc5c(c4)OCO5)c3n2)c1 | inconclusive: 25.1 µM [inhibitor, full curve]
Cc1ccc(Cl)cc1NC(=O)Cn1ccn2nc3c(c2c1=O)CCCCC3 | inconclusive: 50.1 µM [inhibitor, partial curve]
COc1ccc(CN2C=C(C(=O)OCc3nc(-c4cccc(C)c4)no3)C(C)=NS2(=O)=O)cc1 | inconclusive: 39.8 µM [inhibitor, partial curve]
O=C(c1cc2ccccc2[nH]1)N1CCC2(C1)NC(=O)N(Cc1ccccc1)C2=O (centres undefined) | inconclusive: 39.8 µM [inhibitor, partial curve]
COc1cccc(CN2Cc3nc(N(C)c4ccccc4)ccc3OCC2=O)c1 | inconclusive: 79.4 µM [inhibitor, partial curve, poor fit]

SMILES | Potency
O=C(N[C@@H]1CN(C(=O)Nc2ccc(OC(F)(F)F)cc2)CCC[C@H]1O)c1ccc(OCCN2CCOCC2)cc1 | inconclusive: 50.1 µM [inhibitor, partial curve]
Cc1cc(C)n(CC(=O)N2CC(N(C)Cc3cccnc3)C2)n1 | active: 35.5 µM
COCCCNC(=O)c1cc2c(=O)[nH]c(C)cn2n1 | inconclusive: 44.7 µM [inhibitor, partial curve]
CN1CCC(NC[C@H]2O[C@H](Cc3cc(-c4ccc(F)cc4)on3)CC[C@@H]2O)CC1 | inactive
COc1ccc2nc([C@H]3CCN(CCCc4ccccc4)C3)[nH]c2c1 | active: 70.8 µM
O=C(Nc1cccnc1)c1nc2c(o1)CCN(Cc1cccc(O)c1)CC2 | active: 3.98 µM
COc1ccc(-c2nc3cc(C)ccc3cc2CN2CCC(N(C)C)C2)cc1 (centres undefined) | inconclusive: 79.4 µM [inhibitor, partial curve, poor fit]
COc1cccc([S+](=O)([O-])N2CCc3nc(C4CC4)nc(-c4ccc(Cl)cc4)c3CC2)c1 | inactive
CN1Cc2nc(-c3cccc(C(F)(F)F)c3)ccc2OCC1=O | inconclusive: 100 µM [inhibitor, partial curve, poor fit]
CC(=O)Nc1ccc(CNC[C@H]2Cn3c(-c4ccc5c(c4)OCCO5)cnc3CO2)cc1 | inactive
Oc1ccccc1CN1CCOC[C@H]1c1ncc(-c2ccc(F)cc2F)[nH]1 | inactive
CN(C)Cc1ccc(-c2cc(-c3ccc(=O)[nH]c3)c3cncn3c2)cc1 | inactive
COc1cccc(-c2noc(CC3CCN(C(=O)c4cc(Cl)ccc4F)CC3)n2)c1 | inactive
O=C(NC1CCN(c2cc(-c3ccc(F)cc3)[nH]n2)CC1)c1ccccc1Cl | inconclusive: 44.7 µM [inhibitor, partial curve]
O=C(c1cc2cn(C3CC3)cc2s1)N1CCN(c2ccccn2)CC1 | inconclusive: 50.1 µM [inhibitor, partial curve, poor fit]
O=C(NCCn1ccn2nc(-c3ccc(F)cc3)cc2c1=O)c1ccoc1 | inconclusive: 8.91 µM [inhibitor, full curve]
Cc1ccc(C(=O)N2CCC(CCC(=O)N(C)CCc3c(C)nn(C)c3C)CC2)cc1 | inconclusive: 39.8 µM [inhibitor, partial curve]
CNC(=O)[C@H]1C[C@H](Oc2ccccc2)CN1C(=O)c1ccc(Cc2c(C)noc2C)o1 | inconclusive: 50.1 µM [inhibitor, partial curve]
CCOc1nccn2c(-c3ccc(CN4CCN(C(C)=O)CC4)cc3)cnc12 | inconclusive: 89.1 µM [inhibitor, partial curve]
COc1ccccc1-c1ccnc(N[C@H]2CO[C@H]3[C@@H]2OC[C@@H]3NS(=O)(=O)c2ccc3ccccc3c2)n1 | inactive
CCc1ccccc1NC(=O)C1CCN(C(=O)c2ncn3c2COC(c2ccc(F)cc2)C3)CC1 (centres undefined) | inconclusive: 50.1 µM [inhibitor, partial curve]
c1ccc(CN2CCNc3cc(-c4ccoc4)ncc3C2)cc1 | inconclusive: 126 µM [inhibitor, single point]

SMILES | Potency
COc1cc(-c2[nH]ncc2CN2CCCCC2c2nccs2)cc(OC)c1OC (centres undefined) | inconclusive: 28.2 µM [inhibitor, partial curve, poor fit]
CCC(=O)N1CCc2c(C(=O)NCc3cccnc3)cccc21 | inactive
Cc1cccc(NC(=O)N2CCc3c(c4cc(F)ccc4n3C)C2)c1 | inconclusive: 35.5 µM [inhibitor, partial curve]
Cc1ccc(C(=O)NCCn2ccn3nc(-c4ccc(C)cc4C)cc3c2=O)cc1 | inconclusive: 0.398 µM [inhibitor, full curve, poor fit]
OCC1COCCN(Cc2csc(-c3ccc(C(F)(F)F)cc3)n2)C1 (centres undefined) | inconclusive: 79.4 µM [inhibitor, partial curve]
O=C(Nc1cnc(-c2ccc(Cl)cc2)nc1)c1ccccc1F | active: 0.794 µM
O=C1CO[C@H]2CN(Cc3c[nH]c4ccccc34)C[C@H]2N1Cc1ccc(F)cc1 | inconclusive: 50.1 µM [inhibitor, partial curve, poor fit]
O=C(NC1CCN(c2cc(-c3ccccc3)[nH]n2)CC1)c1ccsc1 | inconclusive: 56.2 µM [inhibitor, partial curve]
O=C(COc1ccccc1)Nc1ccc2c(c1)CN(CCc1ccc(F)cc1)C(=O)CO2 | inconclusive: 44.7 µM [inhibitor, partial curve]
Cc1ccc(C2Cn3nnc(C(=O)N4CCC(C(=O)NC5CCCCCCC5)CC4)c3CO2)cc1 (centres undefined) | inconclusive: 39.8 µM [inhibitor, partial curve]
Cc1oc(C(O)c2cncnc2)nc1C(=O)Nc1ccc(N2CCOCC2)cc1 (centres undefined) | active: 17.8 µM
Cc1ccc(OCC(=O)c2ccc3c(c2)N(CC(=O)NC2CCCCC2)C(=O)CO3)c(Cl)c1 | inconclusive: 44.7 µM [inhibitor, partial curve, poor fit]
Cc1cc(C)cc(C(=O)NCCn2cccc2-c2nc(-c3ccc4c(c3)OCO4)no2)c1 | inconclusive: 39.8 µM [inhibitor, partial curve, poor fit]
COCCc1noc(-c2ccc(NC(C)c3ncccc3C)nc2)n1 (centres undefined) | active: 31.6 µM
O=C(NC1CCCN(c2cc(-c3ccc(F)cc3)[nH]n2)C1)c1ccoc1 (centres undefined) | inconclusive: 25.1 µM [inhibitor, full curve]
Cc1cc(Cl)ccc1S(=O)(=O)N1CCC(Oc2ccc(C(N)=O)cn2)CC1 | inactive
Cc1ccc(C2(O)CCN(C(=O)c3ccc4ncccc4c3)CC2)nc1 | inactive
O=C1Nc2ccc(-c3ccc4c(c3)OCO4)cc2C(=O)N2CC[C@H](NC(=O)N3CCOCC3)[C@@H]12 | inconclusive: 17.8 µM [inhibitor, full curve]
CCC(=O)NC[C@H]1Cn2cc(-c3ccc(OC)cc3)nc2CO1 | active: 63.1 µM
Fc1ccc(-c2ccc3ncc(Nc4cc(F)cc(N5CCOCC5)c4)n3n2)cc1 | inconclusive: 14.1 µM [inhibitor, full curve]
